Experimental data reported in the supplement of paper PMC8285479.
Structures can show the parent of a compound that is named as a salt. ± gives the standard deviation of the averaged measurements. Over roughly 1,900 compounds, “normalised cell viability (NPI; 0 = phenylarsine oxide control, 1 = DMSO control)” has its median near 1; the lowest 2% begin near 0.039. The list shows a part of the results.

Test system: NCI-H1944
Assay: normalised cell viability (NPI; 0 = phenylarsine oxide control, 1 = DMSO control) (fraction of DMSO control); NCI-H1944 is a non-small cell lung cancer line; higher = more viable cells (less compound toxicity)
Conditions: 6 days
[1] = glucocorticoid arm: hydrocortisone 2.75 uM co-treatment, compound 1 µM
[2] = glucocorticoid arm: hydrocortisone 2.75 uM co-treatment, compound 5 µM
[3] = glucocorticoid arm: hydrocortisone 2.75 uM pre-treated 2 days and continued, compound 1 µM
[4] = glucocorticoid arm: hydrocortisone 2.75 uM pre-treated 2 days and continued, compound 5 µM
[5] = glucocorticoid arm: vehicle, compound 1 µM
[6] = glucocorticoid arm: vehicle, compound 5 µM
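Note: CTB read-out in 384-well plates, mean of triplicate wells, normalised per plate against 1 µM phenylarsine oxide and 0.1% DMSO, compounds added 24 h after seeding.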

Compound | normalised cell viability [1] | normalised cell viability [2] | normalised cell viability [3] | normalised cell viability [4] | normalised cell viability [5] | normalised cell viability [6]
CC(=O)Nc1nc(C)c(-c2ccc(Cl)c(S(=O)(=O)NCCO)c2)s1 | 0.998 ± 0.013 | 1 ± 0.044 | 0.996 ± 0.013 | 0.975 ± 0.04 | 0.993 ± 0.006 | 1.004 ± 0.0098
COc1ccc(C2CNC(=O)C2)cc1OC1CCCC1 (stereo unspecified) [Rolipram] | 0.975 ± 0.0035 | 0.98 ± 0.019 | 1.01 ± 0.018 | 0.985 ± 0.0078 | 1.001 ± 0.0085 | 0.988 ± 0.01
O=c1c(O)c(-c2ccc(O)cc2O)oc2cc(O)cc(O)c12 [Morin] | 0.998 ± 0.012 | 1 ± 0.033 | 1 ± 0.014 | 1.01 ± 0.044 | 0.985 ± 0.0056 | 0.998 ± 0.011
CC(/C=C/c1cccc(Oc2ccc(F)cc2)c1)N(O)C(N)=O (stereo unspecified) | 1.017 ± 0.0058 | 1.07 ± 0.01 | 1.01 ± 0.011 | 1.06 ± 0.014 | 1.02 ± 0.015 | 1.023 ± 0.0058
COc1ccc(F)c(F)c1C(=O)c1cnc(NC2CCN(S(C)(=O)=O)CC2)nc1N | 0.797 ± 0.064 | 0.846 ± 0.015 | 1.01 ± 0.011 | 1.01 ± 0.02 | 0.367 ± 0.033 | 0.404 ± 0.028
Oc1ccc([C@@H]2CNCc3sccc32)cc1O | 1.013 ± 0.0058 | 1.03 ± 0.026 | 0.965 ± 0.069 | 1.01 ± 0.015 | 1.003 ± 0.0058 | 0.9983 ± 0.0015
Cc1ccc([N+](=O)[O-])cc1S(=O)(=O)N(C)C | 1 ± 0.018 | 0.9945 ± 0.0095 | 1 ± 0.011 | 0.978 ± 0.028 | 1.004 ± 0.0094 | 1.007 ± 0.0052
CC(C)C[C@H](NP(=O)(O)O[C@H]1O[C@H](C)[C@@H](O)[C@H](O)[C@@H]1O)C(=O)N[C@@H](Cc1c[nH]c2ccccc12)C(=O)O [Phosphoramidon disodium] | 0.9937 ± 0.0061 | 1.01 ± 0.02 | 1.01 ± 0.016 | 0.999 ± 0.011 | 0.991 ± 0.0044 | 0.9847 ± 0.0081
NNc1nncc2ccccc12 [Hydralazine hydrochloride] | 0.99967 ± 0.00058 | 0.987 ± 0.021 | 0.997 ± 0.015 | 0.979 ± 0.022 | 0.9967 ± 0.0035 | 0.9957 ± 0.0038
C=CC(=O)Nc1cccc(Oc2nc(Nc3ccc(N4CCN(C)CC4)cc3OC)ncc2Cl)c1 | 0.993 ± 0.024 | 0.978 ± 0.021 | 0.966 ± 0.016 | 0.993 ± 0.015 | 0.9853 ± 0.0071 | 0.986 ± 0.013
O=C(/C=C/c1ccc(O)c(O)c1)OCCc1ccccc1 [Caffeic acid phenethyl ester] | 1 ± 0.0092 | 1 ± 0.016 | 1 | 0.992 ± 0.012 | 0.9827 ± 0.0064 | 0.989 ± 0.012
Cc1ccccc1CN1C2=NCCN2C(=O)C2=C1CCN(Cc1ccccc1)C2 | 1.01 ± 0.017 | 1.03 ± 0.026 | 1.01 ± 0.011 | 0.991 ± 0.028 | 0.999 ± 0.011 | 1.003 ± 0.0058
CC[C@H](C)C(=O)O[C@H]1CCC=C2C=C[C@H](C)[C@H](CC[C@@H]3C[C@@H](O)CC(=O)O3)[C@H]21 [Mevastatin] | 0.9803 ± 0.0032 | 0.939 ± 0.042 | 0.99 ± 0.026 | 1.03 ± 0.08 | 0.997 ± 0.003 | 0.9933 ± 0.0076
Cn1ccc2cc(NC(=O)Nc3cccnc3)ccc21 | 1.017 ± 0.0058 | 0.991 ± 0.012 | 1.02 ± 0.01 | 1 ± 0.013 | 0.993 ± 0.015 | 1
CS(=O)(=O)N1CCc2c(-c3cnc(N)nc3)nc(N3CCOCC3)nc21 | 0.528 ± 0.021 | 0.513 ± 0.01 | 0.552 ± 0.058 | 0.627 ± 0.034 | 0.491 ± 0.024 | 0.651 ± 0.064
CC(=O)[C@]1(O)Cc2c(O)c3c(c(O)c2[C@@H](O[C@H]2C[C@H](N)[C@H](O)[C@H](C)O2)C1)C(=O)c1ccccc1C3=O [Idarubicin hydrochloride; Idarubicin; 4-DMD HCl] | 0.0183 ± 0.0037 | 1.06 ± 0.026 | 0.0494 ± 0.0094 | 1.033 ± 0.0058 | 0.00163 ± 0.00068 | 1.006 ± 0.0075
CC(=O)[C@]1(O)Cc2c(O)c3c(c(O)c2[C@@H](O[C@H]2C[C@H](N)[C@H](O)[C@H](C)O2)C1)C(=O)c1ccccc1C3=O [Idarubicin hydrochloride] | 0.00497 ± 0.00094 | 0.0017 ± 0.0005 | 0.00532 ± 0.0009 | 0.024 ± 0.0063 | 0.00471 ± 0.00071 | 0.00231 ± 0.00037
CN1CCN(CCCN2c3ccccc3Sc3ccc(Cl)cc32)CC1 [Prochlorperazine dimaleate] | 0.9823 ± 0.0064 | 0.9213 ± 0.0091 | 1.02 ± 0.031 | 1 ± 0.011 | 1 ± 0.0085 | 0.869 ± 0.041
COCC[n+]1c2c(n(Cc3cnccn3)c1C)C(=O)c1ccccc1C2=O | 0.00685 ± 0.0014 | 0.00188 ± 0.0012 | 0.00552 ± 0.0012 | 0.0024 ± 0.00039 | 0.00736 ± 0.00083 | 0.00199 ± 0.00048
O=C(NCCO)c1cccc(-c2cc(Nc3ccc(OC(F)(F)F)cc3)ncn2)c1 | 1.02 ± 0.015 | 1.06 ± 0.032 | 1.033 ± 0.0058 | 1.02 ± 0.015 | 0.9997 ± 0.0096 | 1.02
Nc1ncnc2c1c(-c1ccc(Oc3ccccc3)cc1)cn2C1CCCC1 | 0.9787 ± 0.0086 | 0.825 ± 0.052 | 0.995 ± 0.017 | 1.05 ± 0.02 | 1.013 ± 0.0058 | 0.852 ± 0.015
O=C(O)[C@H]1NCCC[C@H]1C(=O)O (relative stereo) [cis-Piperidine-2,3-dicarboxylic acid] | 1 ± 0.016 | 1 ± 0.022 | 1 ± 0.018 | 0.973 ± 0.0087 | 0.987 ± 0.0092 | 0.9887 ± 0.005
CCC(C)N(C)C(=O)c1cc2ccccc2c(-c2ccccc2Cl)n1 (stereo unspecified) | 1 ± 0.024 | 1.02 ± 0.011 | 0.879 ± 0.22 | 0.9985 ± 0.0021 | 0.9953 ± 0.0045 | 1.013 ± 0.0058
COc1cc2c(cc1C(F)(F)F)N(C(=O)Nc1cc(F)cc(-c3cccnc3)c1)CC2 | 0.994 ± 0.017 | 0.0391 ± 0.01 | 1.02 ± 0.01 | 0.903 ± 0.021 | 0.974 ± 0.028 | 0.00107 ± 0.00012
Nc1nc2ccc(Cl)cc2c2nc(-c3ccco3)nn12 | 1.02 | 1.05 ± 0.017 | 1.01 ± 0.017 | 1.02 ± 0.026 | 1.003 ± 0.0058 | 1.007 ± 0.0058
Cc1cc2c(F)c(Oc3ncnn4cc(OC[C@@H](C)OC(=O)[C@H](C)N)c(C)c34)ccc2[nH]1 | 1.013 ± 0.0058 | 1.03 ± 0.021 | 1.002 ± 0.0076 | 1.02 ± 0.016 | 1.01 | 1.03 ± 0.01
